# Results reported in the antibiotic and cytotoxicity screens of Wong et al. (2023).
# The other results are listed elsewhere or left out.
# Assays:
# [1] = tested on: HSkMC (human skeletal muscle cells); test: cytotoxicity call (relative viability < 0.9); details: 10 µM
# [2] = tested on: HepG2; test: cytotoxicity call (relative viability < 0.9); details: 10 µM
# [3] = tested on: S. aureus RN4220; test: growth inhibition call (relative growth <= 0.2); details: 50 µM
SMILES,cytotoxicity call [1],cytotoxicity call [2],growth inhibition call [3]
Cc1ccc(S(=O)(=O)N(C)C[C@@H]2Oc3ccc(NS(C)(=O)=O)cc3CC(=O)N([C@H](C)CO)C[C@H]2C)cc1,inactive,inactive,inactive
Cc1noc(C)c1S(=O)(=O)Nc1ccc2c(c1)CC(=O)N([C@@H](C)CO)C[C@@H](C)[C@@H](CN(C)S(=O)(=O)c1cccs1)O2,inactive,inactive,inactive
C[C@H](CO)N1C[C@H](C)[C@@H](CN(C)Cc2ccc(C(F)(F)F)cc2)OCCCC[C@H](C)Oc2ccc(NC(=O)c3ccncc3)cc2C1=O,inactive,inactive,inactive
C=CCC[C@@H](Cc1ccc(F)cc1)C(=O)O[C@H](CNC(=O)[C@H](CC=C)CC(=O)N(CCO)Cc1ccccc1)c1ccccc1,inactive,inactive,inactive
Cc1ccc(S(=O)(=O)Nc2ccc3c(c2)CC(=O)N([C@H](C)CO)C[C@H](C)[C@H](CN(C)CC2CC2)O3)cc1,inactive,inactive,inactive
CC1(COc2ccc3c(c2)ncn3-c2ccc3cccc(N4CCC(N)CC4)c3n2)COC1,active,active,inactive
C[C@@H]1CN([C@H](C)CO)C(=O)c2cccc(NC(=O)CCCCCC(=O)Nc3ccccc3N)c2O[C@H]1CN(C)CC1CCCCC1,inactive,active,inactive
C[C@H](CO)N1C[C@H](C)[C@H](CN(C)S(=O)(=O)c2cccc(C#N)c2)OCc2cn(nn2)CCCC1=O,inactive,inactive,inactive
O=C(C[C@@H]1CC[C@@H]2[C@H](COC[C@H](O)CN2C(=O)Nc2ccc(C(F)(F)F)cc2)O1)NCc1ccncn1,inactive,inactive,inactive
